{"source": "PubChem BioAssay AID485281", "about": "(National Center for Advancing Translational Sciences (NCATS), 2010)", "note": "Among all 350,000 compounds or so, about 260 (0.074%) were called active. Inconclusive results, whose numbers are uncertain, are shown with a selection of clear calls. The call rests on the fitted dose curve; in most records, active means well fitted inhibition curve with a large enough effect; inconclusive means small, poorly fitted or top-dose-only effect; inactive means no such curve, though single readings can be large or run the other way. Potencies of inconclusive entries are doubtful fits and often do not repeat. Potency means the concentration at half of the fitted maximal effect; tags describe the fitted curve by direction and shape."}
{"biological_target": "Ferritin light chain (Equus caballus) (UniProt P02791)", "sequence (P02791 whole entry, looked up)": "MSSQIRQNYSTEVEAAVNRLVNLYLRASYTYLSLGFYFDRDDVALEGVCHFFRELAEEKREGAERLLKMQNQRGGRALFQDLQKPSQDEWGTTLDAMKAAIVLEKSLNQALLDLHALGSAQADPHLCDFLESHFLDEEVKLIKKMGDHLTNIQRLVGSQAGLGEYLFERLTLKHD", "test": "qHTS Assay for Identification of Novel General Anesthetics; further: nearly all actives have a fitted effect of over 20% in size", "conditions": "apoferritin/1-aminoanthracene competitive binding, fluorescence; series mostly up to 77.5 µM", "procedure,_shortened": "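Apoferritin-based anesthetic binding model; compound displacement of fluorescent 1-AMA measured as endpoint fluorescence after 10 minutes at room temperature, scaled to free-ligand and complex controls.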"}
{"smiles": "CCOc1ccc(NC(=O)Cn2c(=O)oc3ccccc32)cc1", "Potency": "inconclusive: 35.5 µM [inhibitor, partial curve]"}
{"smiles": "Clc1ccc(-c2n[nH]c3c2CCC3)c(Cl)c1", "Potency": "inconclusive: 25.1 µM [inhibitor, partial curve]"}
{"smiles": "CCn1c(SCc2c(Cl)cccc2Cl)nnc1-c1nn(-c2ccccc2)ccc1=O", "Potency": "inconclusive: 25.1 µM [inhibitor, partial curve]"}
{"smiles": "C=CCn1c(SCC(=O)N2c3ccccc3Sc3ccccc32)nnc1-c1ccco1", "Potency": "inactive"}
{"smiles": "Clc1cccc(/C(Cc2nc3ccccc3[nH]2)=N\\Nc2ccccc2)c1", "Potency": "inconclusive: 17.8 µM [inhibitor, partial curve]"}
{"smiles": "Cc1cccc(S(=O)(=O)c2c(N)n(-c3ccccc3)c3nc4ccccc4nc23)c1", "Potency": "inactive"}
{"smiles": "Cc1ccc(S(=O)(=O)Nc2ccc(S(=O)(=O)N3CCCC3)cc2)cc1", "Potency": "inconclusive: 15.8 µM [inhibitor, partial curve]"}
{"smiles": "CCC1CCCCN1C(=O)CSc1nc(-c2ccc(OC)cc2)cc(C(F)(F)F)n1", "note": "(centres undefined)", "Potency": "inconclusive: 15.8 µM [inhibitor, partial curve]"}
{"smiles": "NNC(=O)c1cc2cc(Oc3ccccc3)ccc2[nH]1", "Potency": "inconclusive: 14.1 µM [inhibitor, partial curve]"}
{"smiles": "O=c1ccc2ccccc2[nH]1", "Potency": "inactive"}
{"smiles": "COC(=O)c1ccc(SC2CCCCC2)c([N+](=O)[O-])c1", "Potency": "inconclusive: 20 µM [inhibitor, partial curve]"}
{"smiles": "O=C(COC(=O)c1ccccc1Cl)NCCC1=CCCCC1", "Potency": "inconclusive: 28.2 µM [inhibitor, partial curve]"}
{"smiles": "COC(=O)c1sccc1NC(=O)Nc1ccc(C(C)=O)cc1", "Potency": "inconclusive: 22.4 µM [inhibitor, partial curve]"}
{"smiles": "C/C(=N\\NC(=O)CNc1cccc(C(F)(F)F)c1)c1ccc(Br)cc1", "Potency": "inconclusive: 50.1 µM [inhibitor, single point]"}
{"smiles": "C=CCn1c(O)c(C2=c3ccccc3=NC2=O)c2ccccc21", "Potency": "inconclusive: 25.1 µM [inhibitor, partial curve]"}
{"smiles": "COc1ccc(NC(=O)Cc2nc3ccccc3[nH]2)cc1", "Potency": "inconclusive: 39.8 µM [inhibitor, partial curve]"}
{"smiles": "Cn1c(=O)c2c(n(Cc3ccccc3)c1=O)NC(=O)C2CC(=O)NCc1cccc(Cl)c1", "note": "(centres undefined)", "Potency": "inconclusive: 25.1 µM [inhibitor, partial curve]"}
{"smiles": "COc1cc(C(=O)NCc2nnc(SCC(=O)Nc3cc(C)on3)o2)cc(OC)c1OC", "Potency": "inactive"}
{"smiles": "CC(C)N(C(=O)/C=C/c1cccc([N+](=O)[O-])c1)C(C)C", "Potency": "inconclusive: 39.8 µM [inhibitor, partial curve]"}
{"smiles": "O=C(COC(=O)CNC(=O)c1ccccc1)Nc1ccc(F)c([N+](=O)[O-])c1", "Potency": "inconclusive: 17.8 µM [inhibitor, partial curve]"}
{"smiles": "O=C(COc1cccc(Cl)c1)Nc1ccc(N2CCOCC2)cc1", "Potency": "inconclusive: 39.8 µM [inhibitor, partial curve]"}
{"smiles": "Cc1c(Cc2ccccc2)c(=O)oc2cc(OCC(=O)NCC(O)c3ccccc3)ccc12", "note": "(centres undefined)", "Potency": "inconclusive: 28.2 µM [inhibitor, partial curve]"}
{"smiles": "Cc1n[nH]c(=S)n1/N=C/c1cccc(OCc2ccccc2)c1", "Potency": "inconclusive: 31.6 µM [inhibitor, partial curve]"}
{"smiles": "CCOC(=O)c1ccc(N=c2ssnc2Cl)cc1", "Potency": "inactive"}
{"smiles": "NC(=S)N/N=C/c1ccc2cccc(OCc3ccccc3)c2n1", "Potency": "inactive"}
{"smiles": "COc1ccc(C2CC(=O)c3c(C)nc(N4CCN(C=O)CC4)nc3C2)c(OC)c1", "note": "(centres undefined)", "Potency": "inconclusive: 31.6 µM [inhibitor, single point]"}
{"smiles": "OC1(C2(O)CC(c3ccccc3)ON2)CCCCC1", "note": "(centres undefined)", "Potency": "inconclusive: 35.5 µM [inhibitor, partial curve]"}
{"smiles": "COc1ccccc1C(=O)Oc1ccc(C(C)C)cc1", "Potency": "inconclusive: 35.5 µM [inhibitor, partial curve]"}
{"smiles": "COc1ccccc1CNC(=O)C1CC(c2ccc([N+](=O)[O-])cc2)=NO1", "note": "(centres undefined)", "Potency": "inconclusive: 39.8 µM [inhibitor, partial curve]"}
{"smiles": "CCOC(=O)N1CCN(c2nc3ccccc3nc2C(C#N)S(=O)(=O)c2ccc(C)cc2)CC1", "note": "(centres undefined)", "Potency": "inactive"}
{"smiles": "CC(NC(=O)c1ccc(N(C)C)cc1)C1CC2CCC1C2", "note": "(centres undefined)", "Potency": "inactive"}
{"smiles": "COc1ccc(CCNC(=O)C2CC(c3c(Cl)cccc3Cl)=NO2)cc1", "note": "(centres undefined)", "Potency": "inconclusive: 39.8 µM [inhibitor, partial curve]"}
{"smiles": "CCC(C)c1ccc(NC(=O)CN(C)CC(=O)Nc2cccc(OC)c2)cc1", "note": "(centres undefined)", "Potency": "inconclusive: 28.2 µM [inhibitor, partial curve]"}
{"smiles": "S=c1[nH]nc(C2CCCCC2)n1/N=C/c1ccccn1", "Potency": "inactive"}
{"smiles": "O=Cc1cc(N=Nc2cccc(C(=O)O)c2)ccc1O", "Potency": "inactive"}
{"smiles": "O=C(CCCc1cccs1)Nc1nc2c(s1)CCCC2", "Potency": "inconclusive: 39.8 µM [inhibitor, single point]"}
{"smiles": "CC(=O)Oc1c(-c2ccccc2)oc2c(CC=C(C)C)c3c(c(OC(C)=O)c2c1=O)C=CC(C)(C)O3", "Potency": "inconclusive: 31.6 µM [inhibitor, single point]"}
{"smiles": "CC(=O)Nc1ccc(Oc2cc(C#N)c(C#N)cc2N2CCOCC2)cc1", "Potency": "inactive"}
{"smiles": "C/[N+]([O-])=C\\CC(=O)c1ccc(-c2ccccc2)cc1", "Potency": "inconclusive: 15.8 µM [inhibitor, partial curve]"}
{"smiles": "CN(C)c1cccc(C(=O)N2CCCC(C(=O)c3cc(F)ccc3F)C2)c1", "note": "(centres undefined)", "Potency": "inconclusive: 39.8 µM [inhibitor, single point]"}
{"smiles": "CN(C)c1ccc(N=Nc2ccccc2C(=O)OCC(=O)NC2CCCC2)cc1", "Potency": "inactive"}
{"smiles": "Cc1cccc(NCc2cc(Cl)cc(Cl)c2O)n1", "Potency": "inconclusive: 50.1 µM [inhibitor, single point]"}
{"smiles": "COc1ccccc1NCCC(=O)OCC(=O)NC1CCCCC1", "Potency": "inconclusive: 28.2 µM [inhibitor, partial curve]"}
{"smiles": "CCn1nc2cc(C(=O)NCC34CC5CC(CC(C5)C3)C4)ccc2c1OC", "Potency": "inconclusive: 28.2 µM [inhibitor, partial curve]"}
